Laboratory results from PubChem BioAssay AID1030 (National Center for Advancing Translational Sciences (NCATS), 2008).
Values joined by “and” are separate entries in the source; they are usually repeats but may differ in a detail not shown here. Identical values can stand only once. About 16,000 (7.3%) of roughly 220,000 compounds were called active. Inconclusive results, whose numbers are uncertain, are shown with a selection of clear calls. Calls follow the shape of the dose curve; as a rule, active = well fitted inhibition curve with a large enough effect (not every such curve was filed as active); inconclusive = small, poorly fitted or top-dose-only effect, or another doubt; inactive = no such curve, though single readings can be large or run the other way. Potencies of inconclusive entries are doubtful fits and often do not repeat.

Target: Aldehyde dehydrogenase 1A1 (Homo sapiens) (UniProt P00352)
Assay: qHTS Assay for Inhibitors of Aldehyde Dehydrogenase 1 (ALDH1A1);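 as to activity, negative = inhibition: plate controls were no enzyme wells and a reference inhibitor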
Conditions: Purified ALDH1A1, NADH fluorescence, propionaldehyde substrate; series mostly up to 75.3 µM; activity, negative = inhibition: at the top concentration
Potency is read from the fitted curve at half-maximal effect; tags tell the direction and shape of the fitted curve.

UniProt P00352, sequence (P00352 whole entry, looked up): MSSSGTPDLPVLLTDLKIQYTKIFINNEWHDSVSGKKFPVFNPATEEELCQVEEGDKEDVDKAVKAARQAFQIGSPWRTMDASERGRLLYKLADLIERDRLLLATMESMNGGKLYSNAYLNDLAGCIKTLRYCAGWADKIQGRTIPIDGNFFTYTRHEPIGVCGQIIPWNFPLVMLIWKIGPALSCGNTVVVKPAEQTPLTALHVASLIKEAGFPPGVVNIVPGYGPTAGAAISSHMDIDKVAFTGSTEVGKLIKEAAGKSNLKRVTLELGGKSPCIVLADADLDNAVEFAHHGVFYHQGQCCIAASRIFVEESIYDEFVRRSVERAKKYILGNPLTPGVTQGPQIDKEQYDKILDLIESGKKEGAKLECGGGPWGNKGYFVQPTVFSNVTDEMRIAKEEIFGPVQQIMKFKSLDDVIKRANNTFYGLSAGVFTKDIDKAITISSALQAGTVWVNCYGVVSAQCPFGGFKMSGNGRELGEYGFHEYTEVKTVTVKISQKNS

SMILES	activity, negative = inhibition	Potency
CN(C)N=C1c2cc(S(=O)(=O)N3CCOCC3)ccc2-c2ccc(S(=O)(=O)N3CCOCC3)cc21	inactive: -8.28%	
NS(=O)(=O)c1ccc(NC(=O)NC2CCCCC2)cc1	inactive: 10.3%	
Cc1ccsc1C1C(C#N)=C(N)OC2=C1C(=O)CC(C)(C)C2 (stereo not drawn)		inconclusive: 39.8 µM [inhibitor, single point]
CC1Cc2ccccc2N1C(=S)Nc1cccc(S(=O)(=O)N(C)C)c1 (stereo not drawn)		inconclusive: 37.7 µM [inhibitor, single point]
O=C(O)CCc1nn2c3ccccc3n(Cc3ccccc3F)c2nc1=O		inconclusive: 35.5 µM [inhibitor, single point]
CNC(=S)N=Nc1c(O)[nH]c2ccc(C(C)C)cc12		inconclusive: 22.4 µM [inhibitor, single point]
CCC(C)(C)n1nnnc1CN1CCN(C(c2ccccc2)c2ccccc2)CC1		active: 25.1 µM
Cc1ccc(C(=O)CSc2nnc(COc3cccc4cccnc34)o2)cc1		inconclusive: 39.8 µM [inhibitor, single point]
Oc1c(C=C2N=c3ccccc3=N2)sc(=S)n1-c1ccccc1		inconclusive: 35.5 µM [inhibitor, partial curve, poor fit]
COc1ccc(-c2cc(CNS(=O)(=O)c3ccccc3)on2)cc1		inconclusive: 39.8 µM [inhibitor, single point]
CN1CCN(C2=C(Cl)C(=O)N(c3ccc(Cl)cc3)C2=O)CC1		inconclusive: 31.6 µM [inhibitor, single point]
COc1ccc2c(c1)CCc1c(C(=O)NCCCn3ccnc3)noc1-2		inconclusive: 39.8 µM [inhibitor, single point]
O=C(CN1CCN(C/C=C/c2ccccc2)CC1)Nc1cc([N+](=O)[O-])ccc1Cl		active: 10 µM
CCc1nnc(NC(=O)CSc2nnc(-c3ccc(S(=O)(=O)N4CCCC4)cc3)n2CC)s1		inconclusive: 39.8 µM [inhibitor, single point]
Cc1ccc(-n2c(SCC(N)=O)nnc2-c2ccc(S(=O)(=O)N3CCCCC3)cc2)c(C)c1		inconclusive: 31.6 µM [inhibitor, single point]
CCO[C@H]1OC(C(=O)N2CCN(Cc3ccc4c(c3)OCO4)CC2)=C[C@@H](c2ccc(C(F)(F)F)cc2)[C@@H]1CCCO	inactive: -7.87%	
C/C(=N\NC(=O)CN(c1ccc(C)cc1)S(C)(=O)=O)c1cccs1	inactive: 0.742%	
C/C=C/C(=O)Nc1nnc(C(C)C)s1		inconclusive: 35.5 µM [inhibitor, single point]
Nc1nc(-c2ccc(Br)s2)c(Br)s1	inactive: -20.8%	
O=C(NC(=S)Nc1ccc(S(=O)(=O)Nc2nccs2)cc1)c1ccc(F)cc1		active: 17.8 µM
O=C(O)c1cnc(-c2ccccc2)nc1Sc1cccc(Cl)c1	inactive: -3.35%	
Cc1ccc(C(=O)OCC(=O)N2CC(=O)Nc3ccccc32)s1		inconclusive: 44.7 µM [inhibitor, single point]
O=C(NC(=S)N1CCCCC1)C12CC3CC(CC(C3)C1)C2	inactive: -10.2%	
O=C(c1ccc2c(c1)OCCO2)N1CCN(c2ccc([N+](=O)[O-])cc2)CC1		active: 14.1 µM
Cc1ccc(-c2csc3ncnc(Sc4nnc(CN5CCCCCC5=O)o4)c23)cc1		active: 7.94 µM

SMILES	activity, negative = inhibition	Potency
Cc1onc(-c2c(Cl)cccc2Cl)c1C(=O)NC(=S)Nc1sc2c(c1C(N)=O)CCC(C)C2 (stereo not drawn)		active: 18.9 µM
CCOC(=O)c1c(-c2ccccc2)csc1NC(=O)CSc1nc(N)cc(N)n1	inactive: -4.38%	
O=[N+]([O-])c1ccc(NC2CCN(Cc3ccccc3)CC2)c([N+](=O)[O-])c1	inactive: -2.62%	
O=C(/C=C/NNC(=O)c1ccc(Br)cc1)c1ccccc1		active: 10 µM
Cc1ccc(C2C(C(=O)O)c3ccccc3C(=O)N2C)o1 (stereo not drawn)	inactive: 3.98%	
O=C(NCC1CCCO1)C(c1ccncc1)N(Cc1ccc(F)cc1)C(=O)CN1C(=O)c2ccccc2S1(=O)=O (stereo not drawn)		active: 12.6 µM
CC1CCCN(c2ccc([N+](=O)[O-])s2)C1 (stereo not drawn)		inconclusive: 39.8 µM [inhibitor, single point]
C[C@@H](CN1C2=NC[C@H](Cc3ccc(O)cc3)N2C[C@H]1Cc1ccc(O)cc1)NC(=O)CCC1CCCCC1		inconclusive: 20 µM [inhibitor, partial curve]
CCOc1cc(S(=O)(=O)N2CCC(Cc3ccccc3)CC2)c(OCC)cc1-n1cnnn1		inconclusive: 22.4 µM [inhibitor, partial curve]
CCN(CC)CCNC(=O)c1[nH]c2ccc(OCc3ccccc3)cc2c1C		inconclusive: 31.6 µM [inhibitor, single point]
COc1cccc(Cn2nnc3c(=O)[nH]c(C4CCCN(C(=O)c5ccccc5Cl)C4)nc32)c1 (stereo not drawn)		active: 7.94 µM
Cc1cc(N2CCN(c3cccc(C)c3C)CC2)nc(-c2ccccc2)n1	inactive: 0.17%	
Cn1nnnc1SCC1=C(C(=O)O)N2C(=O)C(NC(=O)C3CC3c3ccccc3)C2SC1 (stereo not drawn)		active: 10 µM
CN(C)c1ccc(C(=O)Nc2ccc(S(=O)(=O)NC3=NCCCCC3)cc2)cc1		inconclusive: 39.8 µM [inhibitor, single point]
O=C1C(=C2CCCCC2)SC(=S)N1Cc1ccco1		active: 17.8 µM
O=C(Nc1ccc(F)cc1)NC1CCN(Cc2nnnn2Cc2ccco2)CC1		active: 17.8 µM
CC(=O)Nc1nc(N)n(-c2ccccc2)n1	inactive: 2.38%	
COc1ccc(NC(=O)c2nn(C)cc2[N+](=O)[O-])cc1	inactive: 0.625%	
CCN(CC)S(=O)(=O)c1cc(NS(=O)(=O)c2ccccc2)ccc1C		inconclusive: 20 µM [inhibitor, partial curve]
CCn1c(=NC(=O)c2ccc(S(=O)(=O)N(C)C)cc2)sc2cccc(OC)c21		inconclusive: 31.6 µM [inhibitor, partial curve]
Oc1ccc2ccccc2c1CN(Cc1c(O)ccc2ccccc12)C1CCCCC1		inconclusive: 8.91 µM [inhibitor, single point]
N/C(=N\OC(=O)c1ccc(Cl)c([N+](=O)[O-])c1)c1ccccn1		inconclusive: 8.91 µM [inhibitor, partial curve]
Cc1ccc(-c2sc(-c3cccnc3)nc2CC(=O)O)cc1		inconclusive: 31.6 µM [inhibitor, single point]
C/C(CC(=O)NC12CC3CC(CC(C3)C1)C2)=N\NC(=O)c1cnccn1		inconclusive: 20 µM [inhibitor, partial curve]
CCOC(=O)N1CCC(NC(=O)c2cc3c(-c4ccccc4F)nn(C)c3s2)CC1		inconclusive: 35.5 µM [inhibitor, single point]

SMILES	activity, negative = inhibition	Potency
COc1ccc(CNC(=O)CCNS(=O)(=O)c2ccc(C)cc2)cc1		inconclusive: 39.8 µM [inhibitor, single point]
Cc1ccc(NC(=O)/C(C#N)=C(\N)C(Cl)(Cl)Cl)nc1		inconclusive: 39.8 µM [inhibitor, single point]
COCc1cc(=O)n2[nH]c(C)cc2n1		inconclusive: 35.5 µM [inhibitor, single point]
COc1ccccc1/C=C/CN1CCOCC1		inconclusive: 20 µM [inhibitor, single point]
CCOc1ccccc1-c1cc(-c2n[nH]c(=S)n2CC)c2ccccc2n1		inconclusive: 31.6 µM [inhibitor, single point]
Oc1cccc(O)c1O		active: 1.5 µM
Cc1ccc(S(=O)(=O)/N=C2/C=C(Sc3ncn[nH]3)C(=O)c3ccccc32)cc1		active: 12.6 µM
COC1=CC(=O)C[C@@H](C)[C@]12Oc1c(Cl)c(OC)cc(OC)c1C2=O		inconclusive: 20 µM [inhibitor, partial curve] and inconclusive: 37.7 µM [inhibitor, single point]
S=C(NCCCc1ccccc1)Nc1ccc(Cl)cc1		inconclusive: 39.8 µM [inhibitor, single point]
CCCS(=O)(=O)n1nc(-c2ccccc2)cc1N	inactive: 0.997%	
O=C(CSc1ccc(-c2ccc(F)cc2)nn1)N1CCCc2ccccc21		inconclusive: 39.8 µM [inhibitor, single point]
COC(=O)c1ccc(Cn2cnc3c(cnn3-c3ccc(C)c(C)c3)c2=O)o1		inconclusive: 7.94 µM [inhibitor, single point]
O=C1CCCC(O)=C1N=Nc1ccc(C(=O)O)cc1		inconclusive: 39.8 µM [inhibitor, single point]
CC1CCCCN1C(=S)Nc1ccc2nc3n(c(=O)c2c1)CCCCC3 (stereo not drawn)		inconclusive: 25.1 µM [inhibitor, partial curve]
CC(Oc1ccccc1Cl)c1nnc(N)s1 (stereo not drawn)	inactive: 6.96%	
CN(CCc1cn[nH]c1)C(=O)CC1C(=O)NCCN1Cc1cccc(Oc2ccccc2)c1 (stereo not drawn)	inactive: -9.91%	
Cn1cc(-c2nc3cnc(N4CCOCC4)nc3n(CCC#N)c2=O)c2ccccc21	inactive: 13.9%	
CC(C)=CCOc1ccc2ccc(=O)oc2c1		inconclusive: 35.5 µM [inhibitor, partial curve]
CN(C)Cc1cc(C(F)(F)F)ccc1C(O)(c1ccccc1)c1ccccc1	inactive: -4.05% [at 13.5 µM]	
CN(C)c1cccc(C(=O)N/N=C/c2ccsc2)c1	inactive: 0.683%	
O=[N+]([O-])c1ccc(OCc2cnc(Cl)s2)cc1	inactive: 0.443%	
CSc1nc2nc3c(cn2n1)C(=O)CC(c1ccccc1)C3 (stereo not drawn)		inconclusive: 3.16 µM [inhibitor, full curve]
Cc1ccc(S(=O)(=O)Cn2nnnc2CN2CCN(C(=O)c3ccco3)CC2)cc1		inconclusive: 39.8 µM [inhibitor, single point]
